Here are results for 85 molecules from article PMC4336329 (PLoS ONE, 2015).

Screen size: about 310,000 compounds; about 2,200 (0.71%) showed an effect of 50% or more. Effects have a minus sign here. The list shows a part of the results. Where a SMILES comes first, the peptide text is derived from it. The star is where a group is joined. Boc = CC(C)(C)OC(=O)*; OBn = c1ccc(CO*)cc1

The assay deals with human ether-à-go-go-related gene (hERG) potassium channel (human, UniProt Q12809). Nature of the assay: primary screen, population patch clamp on CHO cells stably expressing hERG.
Sequence of human ether-à-go-go-related gene (hERG) potassium channel (Q12809 whole entry, looked up): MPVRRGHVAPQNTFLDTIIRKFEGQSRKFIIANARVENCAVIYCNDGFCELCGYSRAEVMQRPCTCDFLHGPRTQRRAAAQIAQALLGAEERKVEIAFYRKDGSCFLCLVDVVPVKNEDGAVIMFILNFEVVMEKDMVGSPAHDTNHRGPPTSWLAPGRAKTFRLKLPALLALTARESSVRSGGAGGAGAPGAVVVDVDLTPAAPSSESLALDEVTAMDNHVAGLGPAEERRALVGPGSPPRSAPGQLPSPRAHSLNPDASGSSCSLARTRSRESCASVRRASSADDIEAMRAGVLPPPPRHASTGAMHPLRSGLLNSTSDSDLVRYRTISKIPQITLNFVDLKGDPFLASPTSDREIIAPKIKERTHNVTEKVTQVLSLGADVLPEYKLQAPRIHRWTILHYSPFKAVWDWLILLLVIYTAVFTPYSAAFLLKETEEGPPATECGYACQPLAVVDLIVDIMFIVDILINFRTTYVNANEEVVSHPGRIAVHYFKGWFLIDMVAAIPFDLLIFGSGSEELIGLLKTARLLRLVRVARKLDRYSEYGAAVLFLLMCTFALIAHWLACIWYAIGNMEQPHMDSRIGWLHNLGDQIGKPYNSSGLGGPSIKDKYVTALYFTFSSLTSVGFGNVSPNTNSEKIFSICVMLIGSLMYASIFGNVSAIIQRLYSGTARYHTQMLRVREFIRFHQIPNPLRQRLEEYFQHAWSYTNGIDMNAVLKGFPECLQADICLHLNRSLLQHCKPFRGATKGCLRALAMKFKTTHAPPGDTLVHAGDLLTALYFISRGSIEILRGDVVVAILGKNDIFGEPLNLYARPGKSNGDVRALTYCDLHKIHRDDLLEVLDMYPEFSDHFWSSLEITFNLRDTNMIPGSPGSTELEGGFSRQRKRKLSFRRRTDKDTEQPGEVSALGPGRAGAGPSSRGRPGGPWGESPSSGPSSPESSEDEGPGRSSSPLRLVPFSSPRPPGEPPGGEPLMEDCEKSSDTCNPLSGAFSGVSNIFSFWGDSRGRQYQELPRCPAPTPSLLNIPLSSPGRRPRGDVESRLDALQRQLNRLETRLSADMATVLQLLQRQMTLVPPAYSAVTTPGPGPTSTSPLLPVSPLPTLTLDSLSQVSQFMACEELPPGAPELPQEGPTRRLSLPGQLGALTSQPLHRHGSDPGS
As for `CCCC(O)(CCN(C)C)c1ccc(OC)cc1` (stereo not shown), the “hERG current change (%, negative = inhibition) at 1uM” value was found to be 9.83%.

Consider `O=C(CSc1nccc(=O)[nH]1)c1cc2ccccc2o1`, for which the “hERG current change (%, negative = inhibition) at 1uM” value is 10%. Take `COc1ccccc1CNC(=O)CCCc1ccccc1`: the “hERG current change (%, negative = inhibition) at 1uM” value was 5.66%.

In the case of `CC1CCN(CC2C(=O)O[C@@H]3C[C@@]4(C)CCC[C@H](C)C4=C[C@H]23)CC(C)(C)C1` (stereo partly shown), the “hERG current change (%, negative = inhibition) at 1uM” value stood at 11.3%. In the case of `O=S(=O)(NCC(c1cccs1)N1CCc2ccccc2C1)c1ccccc1` (stereo not shown) it was -0.251%; in that of `Cn1nc(C(=O)Nc2ccc(Cl)c(S(=O)(=O)N3CCOCC3)c2)c2ccccc2c1=O`, 8.15%. Regarding `Cc1ccc(C(=O)Nc2ccnc(-c3ccncc3)n2)cc1`, the “hERG current change (%, negative = inhibition) at 1uM” value was 10.9%. In the case of `CC(C)CC(NC(=O)C(NC(=O)OC(C)(C)C)C(C)C)C(=O)NC(CCC(=O)OCc1ccccc1)C(N)=O` (stereo not drawn) (Boc-Val-Leu-Glu(OBn)-NH2; configuration not given here) it was 6.39%; in that of `Cc1cc(C)n2nc(CC(=O)NCc3ccc(F)cc3)nc2n1`, 5.55%; in that of `CCCCNC(=O)CNC(=S)N(Cc1cc(OC)c(OC)c(OC)c1)C1CCCC1`, 2.86%. In the case of `COCCNC(=O)N1[C@H]2CC[C@@H]1C(C(=O)OC)=C(c1ccc(-c3ccccc3)c(F)c1)C2` it was 5.14%. In the case of `COc1ccc(S(=O)(=O)N2CCCCCC2)cc1C(=O)NCCc1ccc(F)cc1` it was 6.54%; in that of `Cc1ccc([N+](=O)[O-])cc1-c1ccc(/C=N\n2nnnc2N)o1`, 9.61%; in that of `O=C(NCCCn1ccnc1)c1cc(-c2ccc(Br)cc2)on1`, -6.14%. `COc1ccc(CC(=O)Nc2nc(-c3ccncc3)cs2)cc1`: the “hERG current change (%, negative = inhibition) at 1uM” value is reported as 0.326%.

Take `CCOC(=O)c1ccc(NC(=O)Cn2cc3c(n2)CCC(C)C3)cc1` (stereo not shown): the “hERG current change (%, negative = inhibition) at 1uM” value is 3.01%. With `CCC1=NN2C(=N)/C(=C\c3ccc(SCc4ccco4)o3)C(=O)N=C2S1`, the “hERG current change (%, negative = inhibition) at 1uM” value came out at 18%. For `COC(=O)c1cc2c(cc1Cl)SC(=NCCCN1CCOCC1)NS2(=O)=O`, the “hERG current change (%, negative = inhibition) at 1uM” value stood at 2.61%. On to `O=C(Cc1c(F)cccc1Cl)Nc1ncc([N+](=O)[O-])s1`, for which the “hERG current change (%, negative = inhibition) at 1uM” value was determined as 10.1%. With `Cc1ccccc1-c1noc(-c2ccccc2C(=O)NCC2CCCO2)n1` (stereo not shown), the “hERG current change (%, negative = inhibition) at 1uM” value worked out at 7.67%.

With `N/C(Cc1ccc([N+](=O)[O-])cc1)=N\OC(=O)c1ccc2ccccc2c1`, the “hERG current change (%, negative = inhibition) at 1uM” value was 4.74%. In the case of `COCCC(=O)N1CCC(Oc2ccc(C(=O)N3CCCCCCC3)cc2)CC1` it was 12.2%.

`COc1ccc(C(=O)NCC(=O)Nc2cccc(S(=O)(=O)NCc3ccco3)c2)cc1OC`: the “hERG current change (%, negative = inhibition) at 1uM” value is 10.7%. As for `Cc1ccn2cc(CCNS(=O)(=O)c3ccc([N+](=O)[O-])cc3)nc2c1`, the “hERG current change (%, negative = inhibition) at 1uM” value is -18.3%. In the case of `Cc1cccc(Cn2c(C)nc3c(N)c(C)c(C)cc32)c1` it was 10.6%; in that of `CCOC(=O)c1c(NC(=O)COC(=O)Cn2cnc3ccccc32)sc2c1CCC(C)C2` (stereo not shown), 5.51%. Turning to `O=C(CSc1nc2ccccc2n1Cc1ccccc1)N/N=C/c1ccco1`, the “hERG current change (%, negative = inhibition) at 1uM” value is on record as -29.7%.

Take `Fc1cccc(Cl)c1CNn1cn[nH]c1=S`: the “hERG current change (%, negative = inhibition) at 1uM” value is recorded as -13.2%. As for `O=C(Nc1ccc(C(=O)O)cc1)/C(=C\c1ccccc1)NC(=O)c1ccco1`, the “hERG current change (%, negative = inhibition) at 1uM” value is reported as 12.1%.

As to `Cc1nn(-c2ccccn2)c(C)c1Oc1ccccc1O`, the “hERG current change (%, negative = inhibition) at 1uM” value stood at 14.4%.

Consider `N#Cc1cccc(S(=O)(=O)NCc2nnc3ccccn23)c1`, for which the “hERG current change (%, negative = inhibition) at 1uM” value was 21%. Take `CCN(Cc1ccc2c(c1)OCCO2)C(=O)CN1C(=O)NC2(CCCCC2)C1=O`: the “hERG current change (%, negative = inhibition) at 1uM” value came out at 6.09%.

Regarding `Cc1cc(C(=O)COC(=O)c2cc(Cl)c(O)c(Cl)c2)c(C)n1C`, the “hERG current change (%, negative = inhibition) at 1uM” value was found to be 6.18%. In the case of `Cc1ccc(-c2cc(C(=O)N3CCc4ccccc4C3)no2)cc1` it was 8.01%.

With `OCC1(CCCc2ccccc2)CCN(C2CCSCC2)CC1`, the “hERG current change (%, negative = inhibition) at 1uM” value is -65.4%.

As to `CCc1ccc2c(CN(C)Cc3ccccc3OC)cc(=O)oc2c1.O=C(O)C(=O)O`, the “hERG current change (%, negative = inhibition) at 1uM” value came out at 13.1%. Take `O=S1(=O)N=C(N2CCCC2)c2ccccc21`: the “hERG current change (%, negative = inhibition) at 1uM” value was 13%. In the case of `Oc1ccccc1-c1nc(NCc2ccco2)c2ccccc2n1` it was 6.2%.

Regarding `COc1cc(C(CC(=O)Nc2ncccc2C)N2Cc3ccccc3C2=O)cc(OC)c1OC` (stereo not shown), the “hERG current change (%, negative = inhibition) at 1uM” value worked out at 13.2%.

For the molecule `COC(=O)CSc1nc(-c2ccccc2)cc(-c2ccco2)c1C#N`, the “hERG current change (%, negative = inhibition) at 1uM” value was found to be 7.6%. Regarding `CC(=O)Nc1ccc(NC(=O)c2ccccc2C)cc1`, the “hERG current change (%, negative = inhibition) at 1uM” value was found to be 18.3%. In the case of `Cc1ccc(-c2csc(NC(=S)NC(=O)/C=C/c3ccco3)n2)cc1`, the “hERG current change (%, negative = inhibition) at 1uM” value worked out at 23.2%. For the molecule `Cc1ccc(NC(=S)N2CCC(O)CC2)c(C)c1`, the “hERG current change (%, negative = inhibition) at 1uM” value is reported as 14.5%. With `CCOC(=O)C1CN(S(=O)(=O)c2cccs2)c2ccc(CC(=O)OC)cc2O1` (stereo not shown), the “hERG current change (%, negative = inhibition) at 1uM” value was -1.9%.

For `C=CCc1ccc(OCCOCCNCCCC)c(OC)c1`, the “hERG current change (%, negative = inhibition) at 1uM” value is -7.78%. In the case of `COc1ccc(CCNC(=O)C/C(C)=N/NC(=O)C2CCCCC2)cc1OC` it was 9.86%; in that of `COc1ccccc1-n1nnnc1SCC(=O)Nc1cc(C)on1`, 6.37%; in that of `COc1ccc(S(=O)(=O)N2CCCOC2CNC(=O)C(=O)NCCc2ccco2)cc1` (stereo not shown), 13.5%. In the case of `Cc1ccc(-c2cc(Cc3ccccn3)c(=O)[nH]n2)cc1` it was 7.24%; in that of `COc1ccc(N2CSC3=C(C#N)C(c4cccs4)CC(=O)N3C2)cc1` (stereo not shown), 6.08%.

Take `CCN(CC)c1ccc(NC(=O)C2CCCC2)cc1`: the “hERG current change (%, negative = inhibition) at 1uM” value is 13.2%. In the case of `Cn1c(N)c(C(=O)CSc2nnc(-c3ccccc3F)n2N)c(=O)n(C)c1=O` it was 13.3%; in that of `O=C1CN(C(=O)c2ccccc2Br)C(c2ccc(F)cc2)c2cc(F)ccc2N1` (stereo not shown), 11.7%; in that of `CCOc1ccc(-c2nnc3ccc(SCC(=O)Nc4nc5ccc(C)cc5s4)nn23)cc1`, -6.96%. Consider `COc1ccc(NC(=O)COC(=O)c2cc(OC)c(OC)c(OC)c2)c([N+](=O)[O-])c1`, for which the “hERG current change (%, negative = inhibition) at 1uM” value was -6.12%. In the case of `O=C(Nc1nnc(C2=COCCO2)o1)c1cccc(C(F)(F)F)c1` it was 12.4%; in that of `COc1ccc(NCC(=O)Nc2ccc(C#N)cc2)cc1Cl`, -4.32%. For the molecule `CC(C)(C)c1ccc(/C=C/C(=O)Nc2nncs2)cc1`, the “hERG current change (%, negative = inhibition) at 1uM” value is recorded as 15.7%. In the case of `COc1ccc(S(=O)(=O)N(C)CC(=O)NCc2cccnc2)cc1OC` it was 11%. In the case of `CCC(=O)Nc1ccc(-c2cc(-c3ccccc3)nc(-c3ccc(NC(=O)CC)cc3)n2)cc1` it was 16.3%; in that of `CC1CCN(C(=O)CSc2nc3ccccc3c(=O)n2Cc2ccc3c(c2)OCO3)CC1`, 1.49%. On to `Cc1cccc(NC(=O)CSc2nnc(-c3ccncc3)n2CC2CCCO2)c1` (stereo not shown), for which the “hERG current change (%, negative = inhibition) at 1uM” value came to 7.59%. In the case of `O=C(COC(=O)c1cncc(Br)c1)NC1CCCCC1` it was 14.2%. With `COc1ccc(-n2ncc(S(=O)(=O)c3ccccc3)c2-c2ccc(Cl)cc2)cc1`, the “hERG current change (%, negative = inhibition) at 1uM” value was determined as 11.4%. Take `CCN(CC)CCN1C(=O)C(=O)/C(=C(/O)c2ccc(OC(C)C)cc2)C1c1cccs1` (stereo not shown): the “hERG current change (%, negative = inhibition) at 1uM” value is given as 11.6%. On to `O=C(COC(=O)[C@@H]1CC(O)CN1S(=O)(=O)c1ccc2c(c1)OCCO2)Nc1ccccc1F` (stereo partly shown), for which the “hERG current change (%, negative = inhibition) at 1uM” value was determined as 15.5%. Consider `CCOC(=O)c1[nH]c2c(c1C)C(=O)CC(c1ccc(OCC)c(OC)c1)C2` (stereo not shown), for which the “hERG current change (%, negative = inhibition) at 1uM” value was -5.85%.

Take `CN(C)S(=O)(=O)c1ccc(N2CCCC2)c(C(=O)N2CCC(C(N)=O)CC2)c1`: the “hERG current change (%, negative = inhibition) at 1uM” value is 15.8%.

Take `COC(=O)[C@H](CCSC)NC(=O)N1CCN(Cc2ccccc2)CC1`: the “hERG current change (%, negative = inhibition) at 1uM” value was 5.58%. On to `CCCc1nc2ccccc2c2nc(N)nn12`, for which the “hERG current change (%, negative = inhibition) at 1uM” value worked out at 9.02%. On to `O=C(c1ccccc1)N1CCN(C(=O)c2nn3c(C(F)(F)F)cc(-c4ccccc4)nc3c2Br)CC1`, for which the “hERG current change (%, negative = inhibition) at 1uM” value is reported as 17.3%.

Turning to `Cn1nc(C(=O)NCCCN2CCCCC2)c2c1-c1ccccc1SC2`, the “hERG current change (%, negative = inhibition) at 1uM” value is reported as -24.8%.

As to `CC1CCCN(S(=O)(=O)c2ccc(S(=O)(=O)N3CCC4(CC3)OCCO4)cc2)C1` (stereo not shown), the “hERG current change (%, negative = inhibition) at 1uM” value is 7.23%. Turning to `COC(=O)C(Cc1ccccc1)NC(=O)CCNC(=O)c1ccc(Br)cc1` (stereo not shown), the “hERG current change (%, negative = inhibition) at 1uM” value is -28.3%. In the case of `CS(=O)(=O)N1CCc2cc(C(=O)O)ccc21` it was 10.8%. In the case of `N#CC1(NC(=O)CN2C(=O)NC(c3ccccc3)(c3ccccc3)C2=O)CCCC1`, the “hERG current change (%, negative = inhibition) at 1uM” value is -23.3%.

With `Cc1ccc(N(C(=O)CNC(=O)c2ccco2)C(C(=O)NC2CCCC2)c2ccncc2)cc1C` (stereo not shown), the “hERG current change (%, negative = inhibition) at 1uM” value was found to be 9.64%.

On to `CCn1c(SCC(=O)NNC(=O)Cc2ccccc2)nnc1-c1ccncc1`, for which the “hERG current change (%, negative = inhibition) at 1uM” value came to 9.9%. On to `COC(=O)CSc1nc2ccc(C)cc2cc1C#N`, for which the “hERG current change (%, negative = inhibition) at 1uM” value is 13.6%. `CC(=O)N1CCN(C(=O)COC(=O)c2oc3ccccc3c2C)CC1`: the “hERG current change (%, negative = inhibition) at 1uM” value is recorded as 13.8%. Take `O=C(N(c1ccccc1)c1ccccc1)N(c1ccccc1)c1ccccc1`: the “hERG current change (%, negative = inhibition) at 1uM” value turned out to be 0.814%. As to `O=C(CCSc1nnc2scc(-c3ccccc3)n12)NCc1ccc2c(c1)OCO2`, the “hERG current change (%, negative = inhibition) at 1uM” value was 6.52%. For `O=C(O)COc1ccccc1/C=N/NC(=O)c1cccc(S(=O)(=O)Nc2cccc(Cl)c2)c1`, the “hERG current change (%, negative = inhibition) at 1uM” value is on record as 15.6%. For the molecule `COC(=O)C1=NNC2(c3ccc(C)cc3)C(=O)N(c3ccc(C)cc3)C(=O)C12` (stereo not shown), the “hERG current change (%, negative = inhibition) at 1uM” value was determined as 13.2%. In the case of `O=C(Nc1c(C(=O)O)oc2ccc(Br)cc12)c1ccccc1` it was 2.62%.
